Source: paper PMC7012601
No constants are given. Whether binding was seen depends on the method and setting. In cells and extracts the contact can be indirect. Some entries that bind do so weakly or less than the wild type.

Chains of the proteins cited; added tags and fusions are not shown.
UniProt Q9GZN0: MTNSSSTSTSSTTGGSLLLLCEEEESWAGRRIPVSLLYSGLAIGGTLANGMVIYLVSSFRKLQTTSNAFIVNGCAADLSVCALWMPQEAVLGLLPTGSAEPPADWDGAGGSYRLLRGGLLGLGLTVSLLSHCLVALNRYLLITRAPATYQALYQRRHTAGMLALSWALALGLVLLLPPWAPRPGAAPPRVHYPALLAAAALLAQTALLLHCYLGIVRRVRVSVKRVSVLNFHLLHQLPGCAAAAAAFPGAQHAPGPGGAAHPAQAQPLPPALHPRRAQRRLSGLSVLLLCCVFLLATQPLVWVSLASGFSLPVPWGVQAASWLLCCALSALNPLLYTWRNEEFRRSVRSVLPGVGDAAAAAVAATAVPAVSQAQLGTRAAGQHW

Biological target: GPR88-Rluc8 (human) (UniProt Q9GZN0)
Assay: FRET or BRET; BRET1 saturation in living transfected HEK293FT cells: constant Rluc8-tagged receptor (30 ng cDNA; 50 ng SP-µOR, 20 ng δOR-RLuc8), increasing Venus-tagged receptor (0-100 ng); PBS, 5 mM HEPES, 5 µM coelenterazine H; no agonist; saturated signal read as proximity within 10 nm

binding: binds
B1: GPR12-Venus (receptor, UniProt P47775 1-334)
chain: MNEDLKVNLSGLPRDYLDAAAAENISAAVSSRVPAVEPEPELVVNPWDIVLCTSGTLISCENAIVVLIIFHNPSLRAPMFLLIGSLALADLLAGIGLITNFVFAYLLQSEATKLVTIGLIVASFSASVCSLLAITVDRYLSLYYALTYHSERTVTFTYVMLVMLWGTSICLGLLPVMGWNCLRDESTCSVVRPLTKNNAAILSVSFLFMFALMLQLYIQICKIVMRHAHQIALQHHFLATSHYVTTRKGVSTLAIILGTFAACWMPFTLYSLIADYTYPSIYTYATLLPATYNSIINPVIYAFRNQEIQKALCLICCGCIPSSLAQRARSPSDV
